For one test, the system named is HSkMC. Put plainly: cytotoxicity call (relative viability < 0.9). Particulars: 10 µM.
The test system of another test is HepG2. The experiment in a line: cytotoxicity call (relative viability < 0.9). To be noted: 10 µM.
A further test deals with S. aureus RN4220. The experiment in a line: growth inhibition call (relative growth <= 0.2). Particulars: 50 µM.

Structures are written as SMILES. This is one part of the list.

With `COc1ccc(S(=O)(=O)Nc2ccc3c(c2)CC(=O)N([C@@H](C)CO)C[C@H](C)[C@H](CN(C)S(=O)(=O)c2ccc(OC)cc2)O3)cc1`, the cytotoxicity call in the test with HSkMC and in the test with HepG2 was “inactive” each time. For the same compound, the growth inhibition call in the test with S. aureus RN4220 is “inactive”.

For the compound `C[C@H]1CCCCO[C@H](CN(C)C(=O)Nc2cccc3ccccc23)[C@@H](C)CN([C@@H](C)CO)C(=O)c2cc(NC(=O)Nc3ccccc3)ccc2O1`, the cytotoxicity call with HSkMC and in the test on HepG2 was “inactive” throughout. Also, in the test on S. aureus RN4220, the growth inhibition call is “inactive”.

Consider `O=C(/C=C/c1cccc(-c2cn(CC[C@@H]3OC(=O)[C@H](Cc4ccccc4)N4CC5=CC(=O)[C@H](C6CC6)[C@H]5[C@H]34)nn2)c1)NO`, for which the cytotoxicity call with HSkMC and with HepG2 was “inactive” each time. In the test on S. aureus RN4220, the growth inhibition call was “inactive”.

As for `CN1CCN(C(=O)C[C@H]2C=C[C@@H](NC(=O)c3ccc4c(c3)OCO4)[C@H](CO)O2)CC1`, the cytotoxicity call in the test on HSkMC and in the test with HepG2 was “inactive” throughout. Further, the growth inhibition call in the test with S. aureus RN4220 was “inactive”.

Consider `Cc1ccc(S(=O)(=O)N2C[C@@H](O)COC[C@H]3O[C@H](CC(=O)NCc4cccc(C(F)(F)F)c4)CC[C@@H]32)cc1`, for which the cytotoxicity call in the test with HSkMC and in the test with HepG2 was “inactive” throughout. Further, the growth inhibition call in the test with S. aureus RN4220 was “inactive”.

In the case of `CC(C)NC(=O)N(C)C[C@@H]1Oc2ccc(NS(=O)(=O)c3cccs3)cc2C(=O)N([C@@H](C)CO)C[C@@H]1C`, the cytotoxicity call in the test on HSkMC and in the test on HepG2 was “inactive” in each case. The growth inhibition call in the test on S. aureus RN4220 is “inactive”.

`C[C@@H]1CN([C@@H](C)CO)C(=O)Cc2cc(NC(=O)C3CC3)ccc2O[C@H]1CN(C)Cc1ccc(C(=O)O)cc1`: the cytotoxicity call with HSkMC and in the test on HepG2 was “inactive” in each case. The growth inhibition call in the test with S. aureus RN4220 was “inactive”.

For the compound `C[C@H](CO)N1C[C@H](C)[C@@H](CN(C)S(C)(=O)=O)Oc2ccc(NS(=O)(=O)c3cccs3)cc2C1=O`, the cytotoxicity call with HSkMC and in the test with HepG2 was “inactive” each time. Besides, the growth inhibition call in the test with S. aureus RN4220 is “inactive”.

With `C[C@@H]1CN([C@@H](C)CO)C(=O)c2cc(NC(=O)c3ccncc3)ccc2O[C@@H](C)CCCCO[C@@H]1CN(C)C(=O)Nc1ccc(C(F)(F)F)cc1`, the cytotoxicity call in the test with HSkMC and in the test on HepG2 was “inactive” throughout. Moreover, the growth inhibition call in the test with S. aureus RN4220 was “inactive”.

On to `C[C@@H]1CN([C@@H](C)CO)C(=O)c2cc(NC(=O)Nc3ccc(C(F)(F)F)cc3)ccc2O[C@@H]1CN(C)Cc1ccc2c(c1)OCO2`, for which the cytotoxicity call in the test on HSkMC and in the test on HepG2 was “active” in each case. In the test on S. aureus RN4220, the growth inhibition call was “inactive”.

Turning to `C[C@@H]1CCCCO[C@H](CN(C)C(=O)CCC(F)(F)F)[C@H](C)CN([C@@H](C)CO)C(=O)c2cc(NS(=O)(=O)c3ccccc3)ccc2O1`, the cytotoxicity call in the test on HSkMC and in the test with HepG2 was “inactive” throughout. Besides, in the test with S. aureus RN4220, the growth inhibition call is “inactive”.

On to `C[C@@H]1CCCCO[C@@H](CN(C)C(=O)NC2CCCCC2)[C@@H](C)CN([C@@H](C)CO)C(=O)c2cc(NC(=O)c3ccccc3)ccc2O1`, for which the cytotoxicity call with HSkMC and with HepG2 was “inactive” in each case. For the same compound, the growth inhibition call with S. aureus RN4220 was “inactive”.

For the compound `CO[C@@H]1CN(C)C(=O)c2ccc(NS(=O)(=O)CC(F)(F)F)cc2OC[C@@H](C)N(C(=O)NC(C)C)C[C@@H]1C`, the cytotoxicity call with HSkMC and with HepG2 was “inactive” throughout. Besides, the growth inhibition call in the test on S. aureus RN4220 is “inactive”.

Regarding `[N-]=[N+]=Nc1ccccc1[C@@H]1OC(c2ccc(OCCCO)cc2)=N[C@]1(Cc1ccccc1)C(=O)NC[C@@H](O)CO`, the cytotoxicity call in the test with HSkMC and in the test on HepG2 was “inactive” throughout. Besides, the growth inhibition call in the test with S. aureus RN4220 is “inactive”.

Regarding `C[C@@H]1CCCCO[C@H](CN(C)C(=O)Nc2cccc3ccccc23)[C@@H](C)CN([C@@H](C)CO)C(=O)c2cc(NS(C)(=O)=O)ccc2O1`, the cytotoxicity call in the test on HSkMC and in the test with HepG2 was “inactive” in each case. Also, the growth inhibition call in the test with S. aureus RN4220 was “inactive”.

For the compound `O=C(C[C@H]1C[C@@H]2c3cc(NS(=O)(=O)c4ccc(F)cc4)ccc3O[C@@H]2[C@@H](CO)O1)NCc1cccc(F)c1`, the cytotoxicity call with HSkMC and in the test with HepG2 was “inactive” throughout. In addition, the growth inhibition call in the test on S. aureus RN4220 was “inactive”.

Take `C[C@H](CO)N1C[C@H](C)[C@@H](CN(C)Cc2ccc3c(c2)OCO3)OCCCC[C@H](C)Oc2ccc(NC(=O)c3ccccc3)cc2C1=O`: the cytotoxicity call with HSkMC and with HepG2 was “inactive” each time. Further, the growth inhibition call in the test on S. aureus RN4220 was “inactive”.

Take `COc1ccc2c3c(n(c2c1)C)[C@H](CO)N(Cc1ccccc1)C[C@]13CCN(CC1)C(=O)c1ccccc1F`: the cytotoxicity call in the test on HSkMC and in the test with HepG2 was “inactive” each time. In the test with S. aureus RN4220, the growth inhibition call is “inactive”.

Regarding `COc1ccc(C#Cc2ccc3c(c2)O[C@H](CN(C)C(=O)CN2CCOCC2)[C@@H](C)CN([C@H](C)CO)S3(=O)=O)cc1`, the cytotoxicity call in the test with HSkMC and in the test on HepG2 was “inactive” in each case. Also, the growth inhibition call with S. aureus RN4220 was “inactive”.

Consider `COCCCN1C(=O)[C@@]2(Cc3ccccc31)c1ccccc1C(=O)N(Cc1ccccc1)[C@H]2c1ccc(CO)cc1`, for which the cytotoxicity call with HSkMC and in the test on HepG2 was “inactive” in each case. In the test with S. aureus RN4220, the growth inhibition call was “inactive”.

As for `C[C@@H]1CN([C@H](C)CO)C(=O)c2cc(NC(=O)Nc3ccc(F)cc3)ccc2O[C@@H](C)CCCCO[C@@H]1CN(C)S(=O)(=O)c1ccccc1`, the cytotoxicity call with HSkMC and in the test on HepG2 was “inactive” in each case. Besides, the growth inhibition call in the test with S. aureus RN4220 was “inactive”.

Consider `COc1ccc(S(=O)(=O)Nc2ccc3c(c2)CC(=O)N([C@@H](C)CO)C[C@@H](C)[C@H](CN(C)Cc2ccc(Cl)c(Cl)c2)O3)cc1`, for which the cytotoxicity call with HSkMC and with HepG2 was “inactive” each time. Moreover, the growth inhibition call in the test on S. aureus RN4220 was “inactive”.

For the compound `C[C@H]1CN([C@@H](C)CO)C(=O)Cc2cc(NC(=O)Nc3ccc(Cl)c(Cl)c3)ccc2O[C@H]1CN(C)S(=O)(=O)c1ccc(Cl)cc1`, the cytotoxicity call in the test on HSkMC and with HepG2 was “active” each time. For the same compound, the growth inhibition call in the test with S. aureus RN4220 is “inactive”.

In the case of `Cc1cc(C(=O)O)sc1[C@@H](N)C(=O)O`, the cytotoxicity call with HSkMC and in the test on HepG2 was “inactive” each time. Besides, the growth inhibition call with S. aureus RN4220 was “inactive”.

Regarding `Cc1ccc(S(=O)(=O)Nc2ccc3c(c2)C(=O)N([C@H](C)CO)C[C@@H](C)[C@@H](CN(C)S(=O)(=O)c2c(C)noc2C)O3)cc1`, the cytotoxicity call in the test on HSkMC (human skeletal muscle cells) and with HepG2 was “inactive” in each case. Moreover, in the test on S. aureus RN4220, the growth inhibition call was “inactive”.

Regarding `Cc1ccc(S(=O)(=O)Nc2ccc3c(c2)C(=O)N([C@@H](C)CO)C[C@H](C)[C@@H](CN(C)C(=O)c2ccccc2)OCCCC[C@H](C)O3)cc1`, the cytotoxicity call with HSkMC and in the test on HepG2 was “inactive” each time. Besides, the growth inhibition call in the test on S. aureus RN4220 was “inactive”.

Regarding `C[C@@H]1CN([C@@H](C)CO)S(=O)(=O)c2ccc(C#Cc3ccncc3)cc2O[C@@H]1CN(C)C(=O)C1CCOCC1`, the cytotoxicity call in the test with HSkMC is “inactive”. Also, the cytotoxicity call in the test on HepG2 was “active”. In addition, the growth inhibition call in the test on S. aureus RN4220 was “inactive”.

The values above are taken from the antibiotic and cytotoxicity screens of Wong et al. (2023).
